# Measured values published in the supplement of paper PMC3334620.
# In all, about 33,000 sequences were measured (“E-score (-0.5 to 0.5)”: median about -0.017, highest 2% from about 0.3 on). The list shows a part of the results.
# Biological target: T1, Sut1 (UniProt P53032)
# T1 sequence: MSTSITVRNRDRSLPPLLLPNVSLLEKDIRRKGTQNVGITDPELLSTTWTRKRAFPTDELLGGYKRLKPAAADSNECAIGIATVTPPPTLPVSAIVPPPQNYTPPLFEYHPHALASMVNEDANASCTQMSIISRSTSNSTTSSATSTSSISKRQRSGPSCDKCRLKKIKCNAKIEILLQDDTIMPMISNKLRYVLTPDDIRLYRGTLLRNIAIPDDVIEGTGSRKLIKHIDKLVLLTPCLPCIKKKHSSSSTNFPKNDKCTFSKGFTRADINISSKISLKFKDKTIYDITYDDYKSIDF
# Experiment: PBM E-score (8-mer binding enrichment) (E-score (-0.5 to 0.5)); higher = stronger / more preferred TF binding; most listed sequences are background and not binding sites
# Conditions: protein concentration: 200 nM; construct: GST-full length
# Description: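 Universal 'all 10-mer' protein binding microarrays (Agilent AMADID 015681) probed with GST-tagged S. cerevisiae TFs (full-length or DBD) made by in vitro transcription/translation (PURExpress), about 100-200 nM. Bound TF was detected with fluorescent anti-GST. Each ungapped 8-mer (which stands for itself and its reverse complement) is scored by the PBM enrichment score (E-score), a modified Wilcoxon-Mann-Whitney statistic from -0.5 to +0.5, computed with the Universal PBM Analysis Suite. Scale: above 0.35 generally sequence-specific binding.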
row,Sequence,PBM E-score
1,CAATGCAC,0.00379
2,GGGACTAC,-0.162
3,CTGATTAA,0.209
4,CTTTTCAC,0.0905
5,AATATGCC,-0.0767
6,CTTGGTAC,-0.152
7,AGAGGCTC,-0.103
8,CATTAATG,-0.00733
9,CCACAGTA,-0.146
10,ACGGGCAG,-0.0311
11,GAGATTAA,0.2
12,ATTTGTTA,0.137
13,ATGAGTTC,0.0395
14,AGACTATG,0.0162
15,ATAACCGG,0.0855
16,GTATTATA,0.267
17,ATAATTGG,0.0406
18,ATATGAAA,0.118
19,AATATAGT,0.244
20,CTGCAGTC,-0.164
21,TCCGACCA,0.187
22,TATCAGAA,0.202
23,AGAGTAGC,-0.247
24,AAATTACC,0.105
25,GAGAAAAC,0.0743

row,Sequence,PBM E-score
1,AAAAAAAT,0.271
2,GAAAACGA,0.193
3,CTCAGAGC,-0.294
4,TGGTAACA,0.0878
5,CGCGCCTA,0.0294
6,GAGCAGAA,-0.139
7,ACTTGGAT,0.109
8,GGATAGGA,-0.0216
9,TGAGTAAA,0.0705
10,TTAAATAA,0.259
11,ACAAGGCG,-0.0134
12,TCGCGCAA,0.00429
13,ATCCGTAA,0.183
14,CGTGGAGC,-0.031
15,CAGGAATG,-0.191
16,AACACATT,0.149
17,CAACACTA,0.136
18,ACTATGCT,0.0189
19,GAAATGGA,-0.0628
20,AGTTGTCG,0.0993
21,ACCCGCGA,-0.185
22,AGATGTCG,-0.00069
23,AACTCGGG,-0.135
24,CCTAAGAC,-0.174
25,AGGCGGCA,-0.147

row,Sequence,PBM E-score
1,GGCAACCC,-0.149
2,CATGGTCG,-0.0254
3,CATTCATA,0.175
4,ACCCTAAG,-0.043
5,AGTCTCGC,-0.00891
6,CTAGGGCA,-0.186
7,TAGGTGAA,0.0665
8,ATGTGTTA,0.218
9,CTCCCCAG,-0.385
10,AAAGCCTA,-0.0556
11,TCTCTTCA,0.0405
12,CGCGTAAA,0.0235
13,GCGACCAA,0.13
14,AACGGCAA,-0.00689
15,GAATCCTA,0.191
16,ATGCATCC,0.114
17,CCCGGTAC,-0.128
18,ATGCATAA,0.155
19,CCTGCACA,-0.182
20,CTTGGTGC,-0.165
21,CAAACATG,-0.0582
22,ACCTTGGC,-0.142
23,TGCGTCCA,-0.137
24,AGTTCGTA,0.0376
25,AGCCAAAA,0.104

row,Sequence,PBM E-score
1,ACGTCGTC,-0.163
2,CACAATAC,-0.104
3,CTTGGTTC,0.0679
4,CTTCCGCA,0.0462
5,CTATGGAA,0.0576
6,CGAGTGGC,-0.155
7,ACATATCA,0.221
8,CTGGAAAG,-0.209
9,AAGCCGGG,-0.113
10,TCCCTACA,-0.012
11,AAAGGGGC,-0.00804
12,GAATACCA,0.0475
13,GTAGGAAC,-0.074
14,CGTTGTGA,-0.144
15,CGGCATAA,0.0597
16,GACTATGA,0.165
17,CCCAAGTC,-0.145
18,CACAGAAA,0.0833
19,CCTCTCAC,-0.175
20,GAAACGCA,0.026
21,TTAACCAA,0.105
22,CTGCCTCC,-0.178
23,CTCAGGGC,-0.294
24,ATCTTCAT,0.085
25,CTTGTTTC,0.0336

row,Sequence,PBM E-score
1,GATGAACA,0.0811
2,ACCCTCTA,-0.245
3,AACGACAC,0.106
4,ATCCGGAA,0.303
5,ATAGTCCC,-0.206
6,CATCTTTA,-0.0174
7,AAAATTAT,0.351
8,AACTGCGT,-0.0565
9,ACATGGAT,-0.0533
10,GCACTAGA,-0.132
11,ATCAGAGC,-0.0648
12,CTAGCCCC,-0.155
13,ATACGTTA,0.127
14,AACGATAG,-0.00337
15,CCTCGTGC,-0.256
16,GCTTAGCA,0.0681
17,ACTCATAG,0.0406
18,CAAGCGAC,-0.181
19,CCTCGGAA,0.215
20,CTCAATAA,-0.0175
21,TCAACACA,0.186
22,AGTCCAAT,0.0933
23,TACCGTAA,0.198
24,GCGCGGCA,-0.114
25,AGGGCACG,-0.298

row,Sequence,PBM E-score
1,AAAGGGTC,0.0631
2,GCTATCGA,-0.0248
3,CTCCTCAC,-0.202
4,GTAGTCCA,-0.0313
5,GCTGTAAA,-0.0202
6,ATCGCAGC,-0.147
7,CCGGCAGC,-0.0612
8,AGGCTCCG,0.357
9,AAACGGGG,0.0944
10,ATACACAA,0.166
11,CGTCTGGC,0.0238
12,CTACGCAG,-0.104
13,CACCAACA,-0.0378
14,AGGTACAG,-0.198
15,AGTGGCTC,-0.122
16,CATCTGTA,-0.0504
17,AAGAACTA,0.132
18,TAGAAACA,0.142
19,TCGAGTCA,-0.161
20,GATATTGA,0.234
21,GTCGCCAA,-0.119
22,GAATTTAA,0.134
23,TCACAACA,0.112
24,CCACTCAA,0.0739
25,CCGCCTGC,-0.3

row,Sequence,PBM E-score
1,ATATGACA,0.123
2,ATGTTGGG,-0.182
3,CATGGCGA,-0.149
4,CTACCACA,-0.113
5,CGGGTTCC,-0.022
6,AACTGAAC,0.16
7,TACAGCAA,0.0592
8,AACCCTTA,0.0433
9,AGGAAGGA,-0.258
10,CATAAAAC,0.135
11,CCAGCTGA,-0.0817
12,GGGGGAGA,-0.1
13,ACACCTTC,-0.0207
14,GCTAGGCA,-0.269
15,ATTCGACA,0.0131
16,AGCCGCGG,-0.0103
17,AGGACGGC,-0.193
18,CTCGTCAG,-0.237
19,ACATGCCA,0.0142
20,CCGCTCTC,-0.0819
21,AAATTAGG,0.231
22,AGGACTAC,-0.118
